# Measured values taken from the supplement of paper PMC5499739.
# The full ranking holds about 16,000 sequences; the median of “Z-score” is about -0.37, and the highest 2% start at about 3.1. The list shows a part of the results.
# Tested on: RBM10 RRM1-ZnF-RRM2 (GST-tagged construct)
# Assay: RNAcompete 7-mer binding Z-score; higher = stronger binding preference
# Summary of the method: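 In 1 ml Hepes pH 7.8 buffer with KCl, NaCl, glycerol, DTT, BSA and glutathione Sepharose beads, GST-tagged RBM10 constructs (20 pmol) were incubated for 30 min at 4°C with 1.5 nmol of a designed pool of 241 399 RNAs up to 41 nt. Four 2-min washes at 4°C followed, and bound RNA was detected by microarray hybridisation. Heptamer motif enrichment was expressed as a one-sided Z-score across probes containing each motif.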
row,Sequence,RNAcompete 7-mer binding Z-score
1,CUUUAAG,-0.887
2,UGAACAC,-0.428
3,UUUUAAA,-0.741
4,GUGCUUG,-0.231
5,CUGAGUG,0.283
6,CAUUCGG,-0.246
7,AUCGGCC,-0.741
8,GCGUAUG,0.37
9,UAGACGA,0.184
10,AAGAUCC,-0.643
11,CGUAGUG,0.457
12,GACAUCA,-0.337
13,UAGGGAG,3.15
14,AGUCCAC,-0.511
15,GAGGCUC,-0.0525
16,UGUUCCU,-0.865
17,CUCACUG,-0.719
18,GACGUGG,1.84
19,UGCUGGU,0.0422
20,GUGAGGC,1.86
21,UAACUGA,-0.329
22,UUGCCAU,-0.897
23,AAGACUU,-0.537
24,ACAAUGA,0.0313

row,Sequence,RNAcompete 7-mer binding Z-score
1,CUCGAAA,-0.493
2,GGUGGCU,0.927
3,GUCUAAA,-0.588
4,AGAGGUC,-0.0488
5,AACAGAG,0.967
6,CCAGGAU,0.49
7,UCCAACG,-0.493
8,GGUAGAA,2.43
9,GUUAAAU,-0.0962
10,UUGAGGU,1.29
11,CGAACAA,0.0823
12,UCGGUGU,0.235
13,AGGUUAC,0.538
14,UAUCCAU,-0.326
15,GCCCUAA,-0.712
16,UGCUUUU,-0.872
17,GUCCGGU,-0.0233
18,CCAGGGC,1.13
19,CAGAUGG,1.55
20,UCACCAC,-0.562
21,UUCAAUA,-0.151
22,UAUCUGC,-0.555
23,ACAGUCG,-0.173
24,ACCCUGG,-0.329

row,Sequence,RNAcompete 7-mer binding Z-score
1,CGGUCGA,0.141
2,CCCCACG,-0.358
3,CUCUAGA,-0.817
4,UCUUCCG,-0.763
5,GAAGGAA,4.54
6,UGUCCCU,-0.795
7,CGCAGUU,-0.675
8,GAGUGUG,1.72
9,CGUACUU,-0.799
10,AAAGACA,0.144
11,CCAUGUC,-0.828
12,UAUAGCU,-0.592
13,AUUUCCG,-0.737
14,AUAAUCA,-0.195
15,GCUAGCC,-0.675
16,CGGGAUU,1.56
17,UAAACUA,-0.315
18,ACUGGCU,-0.337
19,GAGAUCA,-0.114
20,CCCUGGC,-0.435
21,AACCCCC,-0.358
22,GGGCGAC,1.94
23,UCGACCG,-0.566
24,GCGGGAG,2.64

row,Sequence,RNAcompete 7-mer binding Z-score
1,UCGGCCU,-0.712
2,CUUUGCC,-1
3,AUGGUUA,2.06
4,UGUUGAC,-0.457
5,CAGCAGG,1.14
6,CUACAUC,-0.712
7,AUGCGUU,-0.209
8,CGGGGCA,2.78
9,AGACCCU,-1.19
10,GAUUGGA,2.28
11,CGUGUGA,0.0859
12,CAUCAGU,-0.216
13,GUGAACG,1.21
14,AUGUGGU,1.14
15,CCGCGUA,-0.613
16,ACAGAAG,0.723
17,AUUUGUU,-0.657
18,GACACUC,-0.792
19,CCUCAUU,-0.912
20,CUGCGUG,-0.304
21,CCUCUUC,-0.795
22,GAGACGA,0.731
23,AGAGACU,-0.537
24,UACUGCC,-0.704

row,Sequence,RNAcompete 7-mer binding Z-score
1,GUUGUAU,0.0204
2,AUAUGUU,-0.471
3,UUUCCGC,-0.744
4,UUUAUAC,-0.734
5,CCUUAUC,-0.89
6,UUCACUC,-0.832
7,AUUCGAU,-0.555
8,UAAGUAU,-0.209
9,UCUGCAU,-0.857
10,GCCUAUG,-0.377
11,AACCGCA,-0.683
12,GACAUGU,-0.111
13,GCGGCAC,0.592
14,GCACCUG,-0.621
15,UGUGAAC,0.261
16,GUACAUA,-0.114
17,CAGUCCC,-0.708
18,AACCGUU,-0.828
19,ACGACAA,-0.18
20,UGGUGGC,1.72
21,AGAUUAC,-0.446
